*1 amine or outer side, *2 acyl side, *3 side chain or, on linkers, in order; H or OH if unused. Where a SMILES comes first, the peptide text is derived from it. [ ]: non-standard residue; d: D form. The star is where a group is joined. ξ: configuration not given here. ξ(3-Amino-2-oxopentanoyl) = CCC(N[*:1])C(=O)C(=O)[*:2]; Pro(3S,4R-CMe2) = CC1(C)[C@H]2[C@@H](C(=O)O)NC[C@H]21; ξPro(4,4-S(CH2)3S) = O=C(O)C1CC2(CN1)SCCCS2; Benzoyl(2-COOH) = O=C(O)c1ccccc1C(=O)*; Isobutyloxycarbonyl = CC(C)COC(=O)*; X8 = O=C(C(=O)[*:2])C(CC1CC1)N[*:1]; Cyclohexylacetyl = O=C(CC1CCCCC1)*; X4 = CCCCC(N[*:1])C(=O)C(=O)[*:2]; Hyp = O=C(O)[C@@H]1C[C@@H](O)CN1; X2 = CCCC(N[*:1])C(=O)C(=O)[*:2]; dPhg = N[C@@H](C(=O)O)c1ccccc1; Chg = N[C@H](C(=O)O)C1CCCCC1; Phg = N[C@H](C(=O)O)c1ccccc1; Tle = CC(C)(C)[C@H](N)C(=O)O; X92 = CC(C)(C(=O)O)C(=O)*; ξChg = NC(C(=O)O)C1CCCCC1; ξPhg = NC(C(=O)O)c1ccccc1; Carboxymethyl = O=C(O)C*; PhAc = O=C(Cc1ccccc1)*; Boc = CC(C)(C)OC(=O)*; NHcHex = C1CCC(N*)CC1; ξNle = CCCCC(N)C(=O)O; CO = O=C([*:1])[*:2]; Bn = c1ccc(C*)cc1; tBu = CC(C)(C)*
What follows are molecules tested against HCV NS3/NS4A protease (strain 1a) (Hepatitis C virus genotype 1a, UniProt P27958) (assay: biochemical). Conditions: Compounds prepared by Solid Phase Synthesis, Table 3; read-out: Ki* CLASS.
Method: Assay for HCV Protease Inhibitory Activity:
Spectrophotometric Assay Spectrophotometric assay for the HCV serine protease was performed on the inventive compounds by following the procedure described by R. Zhang et al, Analytical Biochemistry, 270 (1999) 268-275, the disclosure of which is incorporated herein by reference. The assay based on the proteolysis of chromogenic ester substrates is suitable for the continuous monitoring of HCV NS3 protease activity. The substrates were derived from the P side of the NS5A-NS5B junction sequence (Ac-DTEDWX(Nva), where X=A or chromophoric alcohols (3- or 4-nitrophenol, 7-hydroxy-4-methyl-coumarin, or 4-phenylazophenol). Presented below are the synthesis, characterization and application of these novel spectrophotometric ester substrates to high throughput screening and detailed kinetic evaluation of HCV NS3 protease inhibitors.
Protein concentrations were determined by the Biorad dye method using recombinant HCV protease standards previously quantified by amino acid analysis. Prior to assay initiation, the enzyme storage buffer (50 mM sodium phosphate pH 8.0, 300 mM NaCl, 10% glycerol, 0.05% lauryl maltoside and 10 mM DTT) was exchanged for the assay buffer (25 mM MOPS pH 6.5, 300 mM NaCl, 10% glycerol, 0.05% lauryl maltoside, 5 μM EDTA and 5 μM DTT) utilizing a Biorad Bio-Spin P-6 prepacked column.
Protease Assay: HCV protease assays were performed at 30° C. using a 200 μl reaction mix in a 96-well microtiter plate. Assay buffer conditions (25 mM MOPS pH 6.5, 300 mM NaCl, 10% glycerol, 0.05% lauryl maltoside, 5 μM EDTA and 5 μM DTT) were optimized for the NS3/NS4A heterodimer (D. L. SalI et al, ibid.)). […] Fifty μls of prewarmed protease (12 nM, 30° C.) in assay buffer, was then used to initiate the reaction (final volume 200 μl). The plates were monitored over the length of the assay (60 minutes) for change in absorbance at the appropriate wavelength (340 nm for 3-Np and HMC, 370 nm for PAP, and 400 nm for 4-Np) using a Spectromax Plus microtiter plate reader equipped with a monochrometer (acceptable results can be obtained with plate readers that utilize cutoff filters). Proteolytic cleavage of the ester linkage between the Nva and the chromophore was monitored at the appropriate wavelength against a no enzyme blank as a control for non-enzymatic hydrolysis. The evaluation of substrate kinetic parameters was performed over a 30-fold substrate concentration range (˜6-200 μM). Initial velocities were determined using linear regression and kinetic constants were obtained by fitting the data to the Michaelis-Menten equation using non-linear regression analysis (Mac Curve Fit 1.1, K. Raner). Turnover numbers (kcat) were calculated assuming the enzyme was fully active.
The resulting data were fitted using linear regression and the resulting slope, 1/(Ki*(1+[S] o/Km), was used to calculate the Ki* value.

SMILES | Ki [nM]
CCCC(NC(=O)[C@@H]1C[C@@H](OCc2ccccc2)CN1C(=O)C(NC(=O)C(C)(C)C(=O)O)C1CCCCC1)C(=O)C(=O)NCC(=O)NC(C(=O)O)c1ccccc1 (stereo partly shown) (X92-[ξChg][Hyp](Bn)[X2]G[ξPhg]-OH) | 101 to 1000
CCC(NC(=O)[C@@H]1C[C@@H](OC(C)(C)C)CN1C(=O)[C@@H](NC(=O)c1ccccc1C(=O)O)C1CCCCC1)C(=O)C(=O)NCC(=O)N[C@H](C(N)=O)c1ccccc1 (stereo partly shown) ({Benzoyl(2-COOH)}-[Chg][Hyp](tBu)[ξ(3-Amino-2-oxopentanoyl)]G[Phg]-NH2) | 101 to 1000
CCCCC(NC(=O)CNC(=O)C(=O)C(CCC)NC(=O)[C@@H]1C[C@@H](OCC(=O)O)CN1C(=O)C(NC(=O)CC1CCCCC1)C1CCCCC1)C(N)=O (stereo partly shown) (Cyclohexylacetyl-[ξChg][Hyp](Carboxymethyl)[X2]G[ξNle]-NH2) | > 1000
CCCC(NC(=O)[C@@H]1C[C@@H](OCc2ccccc2)CN1C(=O)C(NC(=O)Cc1ccccc1)C1CCCCC1)C(=O)C(=O)NCC(=O)N[C@@H](C(N)=O)c1ccccc1 (stereo partly shown) (PhAc-[ξChg][Hyp](Bn)[X2]G[dPhg]-NH2) | > 1000
CCCCC(NC(=O)[C@@H]1C[C@@H](OC(C)(C)C)CN1C(=O)[C@@H](NC(=O)OC(C)(C)C)C(C)C)C(=O)C(=O)NCC(=O)N[C@H](C(N)=O)c1ccccc1 (stereo partly shown) (Boc-V[Hyp](tBu)[X4]G[Phg]-NH2) | 101 to 1000
CCCCC(NC(=O)[C@@H]1C[C@@H](OC(C)(C)C)CN1C(=O)[C@@H](NC(=O)OC(C)(C)C)C(C)(C)C)C(=O)C(=O)NCC(=O)N[C@H](C(N)=O)c1ccccc1 (stereo partly shown) (Boc-[Tle][Hyp](tBu)[X4]G[Phg]-NH2) | 101 to 1000

Same assay, conditions: HCV protease continuous assay results, Table 1; read-out: Ki* Range

Ki [nM] | SMILES
> 1000 | C=CCOC(=O)CNC(=O)C(=O)C(CCC)NC(=O)[C@@H]1CCCN1C(=O)[C@@H](NC(=O)c1cnccn1)C1CCCCC1 (stereo partly shown) [Example 53]
> 1000 | CCCC(NC(=O)[C@@H]1C[C@@H](Oc2cc(-c3ccccc3)nc3cc(OC)ccc23)CN1C(=O)[C@@H](NC(=O)OC(C)(C)C)C(C)C)C(=O)C(=O)OC(C)(C)C (stereo partly shown) [Example 338]
> 1000 | CCCCC(NC(=O)[C@@H]1C[C@@H](OC(C)(C)C)CN1C(=O)[C@@H](NC(=O)OCC(C)C)C(C)(C)C)C(=O)C(=O)NCC(=O)N[C@@H](CNC(C)=O)c1ccccc1 (stereo partly shown) [Example 284]
> 1000 | CC[C@H](C)C(NC(=O)[C@@H]1C[C@@H](OC(C)(C)C)CN1C(=O)C(NC(=O)OCC(C)C)C(C)(C)C)C(=O)C(=O)NCC(=O)O (stereo partly shown) [Example 237]
> 1000 | CCCC(NC(=O)[C@@H]1C[C@@H](OCc2ccccc2)CN1C(=O)[C@@H](NC(=O)[C@H](CC(C)C)NS(C)(=O)=O)C1CCCCC1)C(=O)C(=O)NCCCC(C(N)=O)c1ccccc1 (stereo partly shown) [Example 92]
> 1000 | CCCC(NC(=O)[C@@H]1CCCN1C(=O)[C@@H](NC(=O)OCC(C)C)C(C)C)C(=O)C(=O)NCC(=O)N1CCCC(C(=O)O)C1 (stereo partly shown) [Example 23]
101 to 1000 | CCCC(NC(=O)C1C[C@@H](SC(C)(C)C)CN1C(=O)C(NC(=O)OCC(C)C)C1CCCCC1)C(=O)C(=O)NCC(=O)NC(C(=O)N(C)C)c1ccccc1 (stereo partly shown) [Example 157]

SMILES | Ki [nM]
CC(C)COC(=O)N[C@H](C(=O)N1CC2(CC1C(=O)NC(CC1CC1)C(=O)C(=O)NCC(=O)NC(C(=O)O)c1ccccc1)SCCCS2)C1CCCCC1 (stereo partly shown) [Example 147] (Isobutyloxycarbonyl-[Chg][ξPro(4,4-S(CH2)3S)][X8]G[ξPhg]-OH) | 1 to 100

Same assay, conditions: Table 5; HCV NS3/NS4A protease, 30° C., pH 6.5; read-out: Ki* Range

Ki [nM] | SMILES
101 to 1000 | CNC(=O)C(=O)C(CC1CC1)NC(=O)[C@@H]1[C@@H]2[C@H](CN1C(=O)[C@@H](NC(=O)NC(C)(C)C)C(C)(C)C)C2(C)C (stereo partly shown)
101 to 1000 | C=CCCC(NC(=O)[C@@H]1[C@H]2[C@H](CN1C(=O)[C@@H](NC(=O)OC(C)(C)C)C(C)(C)C)C2(Cl)Cl)C(=O)C(=O)NCC=C (stereo partly shown)

Same assay, conditions: Table 5; HCV NS3/NS4A protease, spectrophotometric assay, 30° C., pH 6.5; read-out: Ki* Range

Ki [nM] | SMILES
1 to 100 | C=CCCC(NC(=O)[C@@H]1[C@H]2[C@@H](CN1C(=O)[C@@H](NC(=O)NC(C)CC)C1Cc3ccccc3C1)C2(C)C)C(=O)C(=O)NCC=C (stereo partly shown)
> 1000 | C=CCC(NC(=O)[C@@H]1[C@H]2[C@@H](CN1C(=O)[C@@H](CC(=O)OC(C)(C)C)C1Cc3ccccc3C1)C2(C)C)C(=O)C(=O)NCC (stereo partly shown)

SMILES | Ki [nM]
CCCCC(NC(=O)[C@@H]1[C@H]2[C@@H](CN1C(=O)[C@@H](NC(=O)NC1CCCCC1)C(C)(C)C)C2(C)C)C(=O)C(=O)NCC(=O)N[C@H](C(=O)N(C)C)c1ccccc1 (stereo partly drawn) ({NHcHex-CO}-[Tle][Pro(3S,4R-CMe2)][X4]G[Phg]-NMe2) | 1 to 100

Reference: US7592316B2, “Peptides as NS3-serine protease inhibitors of hepatitis C virus” (Schering Corporation, priority 2000, dated 2009)
